# Measured values from article PMC4336329 (PLoS ONE, 2015).
# Among all 310,000 compounds or so, about 14,000 (4.5%) showed an effect of 50% or more. The effect is printed as a negative number. This is one part of the list.
# Molecular target: human ether-à-go-go-related gene (hERG) potassium channel (human, UniProt Q12809)
# Experiment: primary screen, population patch clamp on CHO cells stably expressing hERG
# 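Also: peak tail current of the secondary pulse compared with the same well before compound.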
# Chain of human ether-à-go-go-related gene (hERG) potassium channel (Q12809 whole entry, looked up): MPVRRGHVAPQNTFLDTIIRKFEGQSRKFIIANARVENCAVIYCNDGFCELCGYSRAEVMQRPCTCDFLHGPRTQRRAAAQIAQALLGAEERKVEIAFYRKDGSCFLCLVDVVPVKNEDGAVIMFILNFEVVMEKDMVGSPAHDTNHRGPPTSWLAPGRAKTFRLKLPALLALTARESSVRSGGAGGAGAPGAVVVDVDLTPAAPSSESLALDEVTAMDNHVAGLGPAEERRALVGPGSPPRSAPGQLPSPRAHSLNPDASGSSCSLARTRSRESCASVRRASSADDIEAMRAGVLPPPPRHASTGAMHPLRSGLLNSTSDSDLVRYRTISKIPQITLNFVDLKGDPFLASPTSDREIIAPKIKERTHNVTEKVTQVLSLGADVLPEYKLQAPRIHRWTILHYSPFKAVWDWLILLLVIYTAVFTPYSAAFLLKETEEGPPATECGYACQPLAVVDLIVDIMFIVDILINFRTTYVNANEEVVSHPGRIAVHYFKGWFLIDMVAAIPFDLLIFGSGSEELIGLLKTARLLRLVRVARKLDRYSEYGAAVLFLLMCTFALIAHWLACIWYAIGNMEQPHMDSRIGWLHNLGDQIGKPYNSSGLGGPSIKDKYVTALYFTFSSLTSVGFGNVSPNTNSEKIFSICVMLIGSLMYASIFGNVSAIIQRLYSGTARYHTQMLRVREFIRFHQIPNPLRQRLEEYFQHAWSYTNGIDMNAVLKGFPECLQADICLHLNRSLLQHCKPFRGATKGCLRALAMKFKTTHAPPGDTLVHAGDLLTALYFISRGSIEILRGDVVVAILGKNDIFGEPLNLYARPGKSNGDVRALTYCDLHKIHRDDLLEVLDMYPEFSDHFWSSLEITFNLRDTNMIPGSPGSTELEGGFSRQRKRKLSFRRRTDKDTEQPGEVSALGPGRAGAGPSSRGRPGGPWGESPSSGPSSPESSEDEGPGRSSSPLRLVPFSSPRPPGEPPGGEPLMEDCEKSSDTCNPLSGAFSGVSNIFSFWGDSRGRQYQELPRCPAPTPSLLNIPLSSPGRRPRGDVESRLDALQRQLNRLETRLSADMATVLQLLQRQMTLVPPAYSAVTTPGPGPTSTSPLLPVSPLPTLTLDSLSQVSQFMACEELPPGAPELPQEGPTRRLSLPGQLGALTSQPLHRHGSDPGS
row,Compound,"hERG current change (%, negative = inhibition) at 10uM"
1,COc1ccc(Cl)cc1Nc1nc(-c2cccnc2)cs1,5.19%
2,COc1ccc(C(C)(C)C)cc1NC(=O)c1c(C)noc1C,-13.8%
3,CCc1ccc(C(=O)NNC(=O)OC)cc1,8.49%
4,CN1CCN(C(=O)c2ccc(CSc3ccc(Cl)cc3)cc2)CC1,-38.1%
5,CCN(CC)C(=O)CSc1nnc(-c2ccccc2)n1-c1ccccc1,17.8%
6,COC(=O)C1=C(C(=O)OC)C2(OC1c1ccccc1C)C(=O)c1ccccc1C2=O (centres unmarked),15.6%
7,Cc1ccc2oc(=S)n(C)c2c1,-5.64%
8,Nc1cc(=O)[nH]c2nnc(SCC(=O)Nc3cccc4ccccc34)n12,6.6%
9,CC(C)(C)NC(=O)c1ccc(COCC(F)(F)F)o1,-4.16%
10,Cc1cc(C)c2c(NC(=O)C3CC3)nn(C)c2n1,4.48%
11,COc1ccc(/C(N)=N/OC(=O)Cc2ccccc2[N+](=O)[O-])cc1,-10.2%
12,O=C(CNC(=O)c1cccs1)Nc1ccc2c(c1)OCCO2,-5.45%
13,O=C(CSc1nnc(Cc2csc(Nc3cccc(Cl)c3)n2)o1)N1CCc2ccccc21,0.477%
14,COc1ccc(C(=O)NCc2nnc(SCC(=O)Nc3ccccc3OC)o2)cc1,-7.3%
15,CC(C)[C@H](NC(=O)c1ccccc1)C(=O)OCC(=O)/C=C1/N(C)c2ccccc2C1(C)C,-19.3%
16,CCOc1ccc(Cl)cc1CNCCc1ccc(F)cc1.Cl,-48%
17,CC1CCN(CC(=O)NCc2ccco2)CC1,10.9%
18,CCCCCCCC(=O)N/N=C(\C)c1ccc(N)cc1,-17.4%
19,O=C(OCc1nc2ccccc2s1)c1cccc(S(=O)(=O)N2CCOCC2)c1,3.97%
20,CCOC(=O)c1n[nH]n(-c2cc(Cl)cc(Cl)c2)c1=O,25.7%

row,Compound,"hERG current change (%, negative = inhibition) at 10uM"
1,CCc1ccc(O)c(-c2cc(C(=O)Nc3cccnc3)[nH]n2)c1,3.19%
2,Fc1cc(Cl)c(OCc2noc(-c3ccsc3)n2)c(Cl)c1,6.81%
3,CCOC(=O)c1c(NC(=O)C2CCCCC2C(=O)O)sc2c1CCCCC2 (centres unmarked),9.59%
4,COc1cc(NC(=S)Nc2ccc(N(C)C(C)=O)cc2)cc(OC)c1,25.7%
5,COc1ccccc1C(C(=O)NCc1ccc(F)cc1)N(C(=O)c1csnn1)C1CC1 (centres unmarked),1.84%
6,O=C(CNC(=O)c1ccccc1F)N/N=C/c1cccnc1,11.6%
7,CCOc1ccccc1NS(=O)(=O)c1ccc2oc(=O)ccc2c1,-5.62%
8,CS(=O)(=O)Nc1ccc(C(=O)NCC2CCCO2)cc1 (centres unmarked),7.78%
9,Nc1nc2c(-c3ccc(Br)cc3)nnn2c2ccccc12,6.33%
10,O=C1NCCN(Cc2cccc(Oc3ccccc3)c2)C1CC(=O)N1CCCCO1 (centres unmarked),-38.1%
11,COc1ccc(Br)cc1CNC(=O)CCC(=O)n1nc(C)c2ccccc21,17.8%
12,O=C(Nc1ccccc1)OCC1CCCO1 (centres unmarked),21.3%
13,CC(C)C(NC(=O)c1cccc(S(=O)(=O)N2CCOCC2)c1)C(=O)NCCc1ccccn1 (centres unmarked),18.1%
14,CCCn1c(N)c(C(=O)CN(C)CC(=O)Nc2ccccc2C(F)(F)F)c(=O)[nH]c1=O,-0.764%
15,COCCNc1nc2c(-c3cccc(C(F)(F)F)c3)nnn2c2ccccc12,18.6%
16,CCn1c(=O)cc(OCC(=O)NCCC(C)C)c2ccccc21,0.0582%
17,Cc1ccc(NC(=O)C2CCN(S(=O)(=O)c3cccc4nonc34)CC2)cc1,10.6%
18,COc1ccc2ccn(S(=O)(=O)c3ccccc3)c2c1,17.3%
19,CCN(CC)/C(=N\S(=O)(=O)c1ccc(F)cc1)c1ccccc1,8.34%
20,COc1ccc(NCc2ccccc2[N+](=O)[O-])cc1OC,-16.5%

row,Compound,"hERG current change (%, negative = inhibition) at 10uM"
1,C=C(C)C1CC=C(C)/C(=N/NC(=O)COc2cccc3ccccc23)C1 (centres unmarked),10.9%
2,CCC1Oc2ccc(C)cc2N(CC(=O)NCCCN2CCCC2)C1=O (centres unmarked),-34.7%
3,CCOC(=O)c1c(C)oc2cc(Br)c(OCC(N)=O)cc12,7.22%
4,O=C1c2ccccc2C(=O)c2cc(NC(=O)C3CC3)ccc21,3%
5,CCN1CCc2c(OCC(=O)Nc3ccccc3)cccc2C1=O,5.18%
6,Cc1ccc(OCCSCc2nc3ccccc3[nH]2)cc1,-12.6%
7,CC(=O)c1cccc(NC(=O)c2cc(C)nn2-c2ccccc2)c1,-21%
8,O=C(O)c1ccccc1OCc1ccccc1Br,11%
9,CCn1c(C)c(C(=O)NCCc2ccccc2)c2cc(OC)ccc21,-49.3%
10,COc1cccc(NC(=O)CSc2ccc3nnc(-c4ccccn4)n3n2)c1,-47.3%
11,O=C(O)C(=O)O.O=C(c1ccccc1)N1CCN(Cc2ccccc2)CC1,-9.23%
12,COc1ccc(-c2cn(Cc3ccc4c(c3)C(=O)c3ccccc3C4=O)nn2)cc1,-5.75%
13,COc1ccc(N2CCN(C(C)C(=O)N3CCCC3)CC2)cc1.O=C(O)C(=O)O (centres unmarked),9.6%
14,COCCNC(=O)C1CCC(CNS(=O)(=O)c2ccc3c(c2)CC(C)N3C(=O)C2CC2)CC1 (centres unmarked),-5.72%
15,Cc1ccc2nc(NC(=O)C3CCN(S(=O)(=O)c4cccs4)CC3)sc2c1,-6.05%
16,O=C(Nc1ccc2oc(-c3cccnc3)nc2c1)c1cccnc1,9.82%
17,CN(C)/C=C/C1=CC(=O)CC(C)(C)C1,5.27%
18,CC1CCN(C(=O)CCC(=O)N2CC(C)Oc3ccccc32)CC1 (centres unmarked),-8%
19,COc1ccccc1NS(=O)(=O)c1ccc(C)c(C(=O)NCC2CCCO2)c1 (centres unmarked),-16.7%
